Measurements from paper PMC7819943, “Rice protein-binding microarrays: a tool to detect cis-acting elements near promoter regions in rice”.
The other results are listed elsewhere or left out.

molecular target: T1, OsWOX13 (Oryza sativa, UniProt Q5QMM3 1-267); experiment: protein-binding microarray (RPBM); PBS, 2% BSA, 51.3 ng/ul salmon testes DNA, 50 uM zinc acetate, 200 nM TF, 25 C, 1 h; high values mean tight binding; conditions: protein: recombinant; tags: N-terminal polyhistidine and DsRed monomer fusion (pET32a); label: CyDye5-dUTP incorporated in the synthesized complementary strand; 3' TTTTT single-stranded linker to array surface; dsDNA, one strand shown
T1 sequence: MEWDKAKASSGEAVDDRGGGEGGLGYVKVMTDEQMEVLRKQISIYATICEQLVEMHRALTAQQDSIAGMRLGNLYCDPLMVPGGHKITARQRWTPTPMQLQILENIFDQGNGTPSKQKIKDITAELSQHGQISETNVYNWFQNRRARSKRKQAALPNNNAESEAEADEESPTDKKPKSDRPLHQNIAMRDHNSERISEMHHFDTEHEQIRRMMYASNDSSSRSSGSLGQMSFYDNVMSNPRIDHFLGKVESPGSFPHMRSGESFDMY
Outline: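 Binding signal is defined as the fluorescence intensity of each feature in arbitrary units, read on an Axon 4000B scanner. Transcription factors with N-terminal polyhistidine and DsRed fusions came from E. coli BL21-CodonPlus and were purified on Ni–NTA. They were incubated at 200 nM for 1 h at 25 °C on a custom Agilent array that had been made double-stranded with Cy5-dUTP, with 50 µM zinc acetate present, and the array was washed.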

Sequence	binding signal
AATAAGTAATACTCAATTAATTATGTACTAATGACTCATCCGGAGTCACCTAGTGCAG	13800 fluorescence intensity (a.u.)
ATCTGATTCGTGATTAATTAGTAATTAATTAATCTTTACTCGGAGTCACCTAGTGCAG	61000 fluorescence intensity (a.u.)
AGCAATTATTATCTAAAATGTTTTAGATCACATGCATCTGCGGAGTCACCTAGTGCAG	6500 fluorescence intensity (a.u.)
GGGGTGATGATGTATACTTAAAACCATTCTTGGAGGATGACGGAGTCACCTAGTGCAG	4430 fluorescence intensity (a.u.)
ATCGGTCGATTAATTTACTTGAGTAATGCCTTTTAGCCTCCGGAGTCACCTAGTGCAG	4620 fluorescence intensity (a.u.)
ATACTGTAACTGAGTACAAATTTATAACCCGCTTTTCCTCCGGAGTCACCTAGTGCAG	4710 fluorescence intensity (a.u.)
TGCACTAATTATCTGCATCGATCCAAACCTCAGCTATAAACGGAGTCACCTAGTGCAG	10100 fluorescence intensity (a.u.)
CAATTTCAGTTATCCATGTTTAACACAACTATTTACTCAGCGGAGTCACCTAGTGCAG	3320 fluorescence intensity (a.u.)
AGATGATTAATTGCACATTTGTTTGTTTTATGTTCGATTACGGAGTCACCTAGTGCAG	46900 fluorescence intensity (a.u.)
TGTATCCTAAACTATAATTTAGCGGTAAATTATTTCCAAACGGAGTCACCTAGTGCAG	8910 fluorescence intensity (a.u.)
GAATTGACTCAGTTGATTGCTGCAGGTGGATGTTATTATACGGAGTCACCTAGTGCAG	11300 fluorescence intensity (a.u.)
GTTTAATTAATTATATGTTAATGATTTTCTTTTCATGCCCCGGAGTCACCTAGTGCAG	65400 fluorescence intensity (a.u.)
CCCATATTTGTCTAATTTCTGTGAGCAGTCTACCCATTATCGGAGTCACCTAGTGCAG	4420 fluorescence intensity (a.u.)
ACACCAATTGAACATTTGGATGTAAACATTAGGGATGCTGCGGAGTCACCTAGTGCAG	3400 fluorescence intensity (a.u.)
CGTTCCAATTTCAATCAAACTTTCAATTTTAATGTGAAGTCGGAGTCACCTAGTGCAG	19700 fluorescence intensity (a.u.)
TAATTTGCTAGTACCACTGTAATTTACTAGGCCACTCACGCGGAGTCACCTAGTGCAG	3560 fluorescence intensity (a.u.)
GTTTAATTAATCCTTCATTAGCAAATGTTTACTGTAGCATCGGAGTCACCTAGTGCAG	29000 fluorescence intensity (a.u.)
GGAGTAGATTGAAAATTGTCCGATCCGTCTATTAATCAGACGGAGTCACCTAGTGCAG	21500 fluorescence intensity (a.u.)
TATTCAATTAAATGAAAATACACATATATGGAGCACCGATCGGAGTCACCTAGTGCAG	17300 fluorescence intensity (a.u.)
GCCTAATTAATCCATAATTAGCAAAAGTTGACTGTAGCAACGGAGTCACCTAGTGCAG	47400 fluorescence intensity (a.u.)
GTAAACAAACTCTTATTTAAATTTGTTTATGTAATATCATCGGAGTCACCTAGTGCAG	6300 fluorescence intensity (a.u.)
CATATGATAGATGGCAATTCGTCCACTAGCATGAACAAATCGGAGTCACCTAGTGCAG	12400 fluorescence intensity (a.u.)
TGTTTGTGCTTAATTAATTAATTGTTGAATAGCCGAATGACGGAGTCACCTAGTGCAG	9650 fluorescence intensity (a.u.)
CAAAACTGAACATGAGATAAATTTGTCCCTGCCAAAATTGCGGAGTCACCTAGTGCAG	6700 fluorescence intensity (a.u.)
GTGTAATTTTACGAAAACAAGTCATAAAACCATCGTTTTACGGAGTCACCTAGTGCAG	4060 fluorescence intensity (a.u.)
ATGAACTGATAATCACCATTGGCTACTCCATCCAGTTCAACGGAGTCACCTAGTGCAG	12000 fluorescence intensity (a.u.)
ATCTTAAATGGAAAATTGATGATTTTCTTCATAGTTGCATCGGAGTCACCTAGTGCAG	43400 fluorescence intensity (a.u.)

Sequence	binding signal
CTTCATTTTAGAAAATTTAATTTCTAGGTTTAAACTTGGACGGAGTCACCTAGTGCAG	3560 fluorescence intensity (a.u.)
CCAAACAAATTTAATCAAAAGTCAGCATGATGCAGTCAAACGGAGTCACCTAGTGCAG	9340 fluorescence intensity (a.u.)
AGTACAAAATTTAAAATTATGTTGCTATTTTATTATATTTCGGAGTCACCTAGTGCAG	3220 fluorescence intensity (a.u.)
CAAAATAAATTCATTTATCATCCATCATAAATATTCCAATCGGAGTCACCTAGTGCAG	4270 fluorescence intensity (a.u.)
TGATGTCGTGATTGCAGAACTGTTTTCATATGCGTGTCAACGGAGTCACCTAGTGCAG	12300 fluorescence intensity (a.u.)
CAATGACTGAACCAGGACATATGTATACAGTCGCTTCTGTCGGAGTCACCTAGTGCAG	4700 fluorescence intensity (a.u.)
CCTTTAATTATCAATTGTTTTACTTTGCTCTAATACACTTCGGAGTCACCTAGTGCAG	27600 fluorescence intensity (a.u.)
TCCCTAATAGCTTATAAACTATATAAGAGATATGTACATTCGGAGTCACCTAGTGCAG	4310 fluorescence intensity (a.u.)
CAATATTATAATTGTGTTAGATAGAGTATCACTATATTGCCGGAGTCACCTAGTGCAG	8920 fluorescence intensity (a.u.)
TATCAAATTATCATACCTGATACCCGATACTAGGTATGGCCGGAGTCACCTAGTGCAG	5390 fluorescence intensity (a.u.)
GATGATGTGACTGAAATGTTGTGTGTTTATGACAGATTGACGGAGTCACCTAGTGCAG	17400 fluorescence intensity (a.u.)
AAAATATATAATTAAACAGTTAATGACATACCTCTGGTTTCGGAGTCACCTAGTGCAG	19500 fluorescence intensity (a.u.)
GTGCATAATTCGATTGAATGATACAGTGATACACAATCTGCGGAGTCACCTAGTGCAG	10200 fluorescence intensity (a.u.)
GGTCCAATCAAACGGTCATTCTTGTGTTTTCCCTGTGTTTCGGAGTCACCTAGTGCAG	13000 fluorescence intensity (a.u.)
TGAGGTTGATCAATCAACATGGCGAGACCTAGCTCCGGTGCGGAGTCACCTAGTGCAG	13300 fluorescence intensity (a.u.)
TAATAATATAATAGATTGTGTTCAACATTTAACCGTTATCCGGAGTCACCTAGTGCAG	15400 fluorescence intensity (a.u.)
CATGATCATCATGAATCAATCACCCGCCGTCCGTTGCATCCGGAGTCACCTAGTGCAG	31300 fluorescence intensity (a.u.)
GATCAATAATTGAATATATTTTAATAATAAATTTGTCTTGCGGAGTCACCTAGTGCAG	55500 fluorescence intensity (a.u.)
CTGAAGCAAATTAGTTAGAGGCCATCAAGCAATTTCGCAGCGGAGTCACCTAGTGCAG	3340 fluorescence intensity (a.u.)
CTAAATTCCCTATCAATTTCCACCACCTCTACCAAACAAGCGGAGTCACCTAGTGCAG	15700 fluorescence intensity (a.u.)
CTGCCCCTTGGTAATTAATAATGTTAATGACACTAGTAATCGGAGTCACCTAGTGCAG	3460 fluorescence intensity (a.u.)
TATTTCAAATTTTAATTAATATCGTATTGGGTTCTTATATCGGAGTCACCTAGTGCAG	5540 fluorescence intensity (a.u.)
AACCAGTTATAACAAATAGAAAATTATTTGCTTAATGTGCCGGAGTCACCTAGTGCAG	5990 fluorescence intensity (a.u.)
AATTGATATGGGATTTCGTGGTTGTACTTGCAGTGGGCGACGGAGTCACCTAGTGCAG	3820 fluorescence intensity (a.u.)
TAAAGAAAACCAATCAATCGGAACGACTACTATACTCTCCCGGAGTCACCTAGTGCAG	7680 fluorescence intensity (a.u.)
GATTAACTAACACTAATGGGTAATCTCCGGAGGCAAATCACGGAGTCACCTAGTGCAG	12400 fluorescence intensity (a.u.)
ACCCTGAATTTTCGTGTCTAAATTTAACTGTCCGTCTTATCGGAGTCACCTAGTGCAG	10700 fluorescence intensity (a.u.)
